Among all 310,000 compounds or so, about 2,200 (0.71%) showed an effect of 50% or more. The effect is printed as a negative number. The list shows a part of the results.
The compounds below were run against human ether-à-go-go-related gene (hERG) potassium channel (human, UniProt Q12809) (assay: primary screen, population patch clamp on CHO cells stably expressing hERG).
Chain of human ether-à-go-go-related gene (hERG) potassium channel (Q12809 whole entry, looked up): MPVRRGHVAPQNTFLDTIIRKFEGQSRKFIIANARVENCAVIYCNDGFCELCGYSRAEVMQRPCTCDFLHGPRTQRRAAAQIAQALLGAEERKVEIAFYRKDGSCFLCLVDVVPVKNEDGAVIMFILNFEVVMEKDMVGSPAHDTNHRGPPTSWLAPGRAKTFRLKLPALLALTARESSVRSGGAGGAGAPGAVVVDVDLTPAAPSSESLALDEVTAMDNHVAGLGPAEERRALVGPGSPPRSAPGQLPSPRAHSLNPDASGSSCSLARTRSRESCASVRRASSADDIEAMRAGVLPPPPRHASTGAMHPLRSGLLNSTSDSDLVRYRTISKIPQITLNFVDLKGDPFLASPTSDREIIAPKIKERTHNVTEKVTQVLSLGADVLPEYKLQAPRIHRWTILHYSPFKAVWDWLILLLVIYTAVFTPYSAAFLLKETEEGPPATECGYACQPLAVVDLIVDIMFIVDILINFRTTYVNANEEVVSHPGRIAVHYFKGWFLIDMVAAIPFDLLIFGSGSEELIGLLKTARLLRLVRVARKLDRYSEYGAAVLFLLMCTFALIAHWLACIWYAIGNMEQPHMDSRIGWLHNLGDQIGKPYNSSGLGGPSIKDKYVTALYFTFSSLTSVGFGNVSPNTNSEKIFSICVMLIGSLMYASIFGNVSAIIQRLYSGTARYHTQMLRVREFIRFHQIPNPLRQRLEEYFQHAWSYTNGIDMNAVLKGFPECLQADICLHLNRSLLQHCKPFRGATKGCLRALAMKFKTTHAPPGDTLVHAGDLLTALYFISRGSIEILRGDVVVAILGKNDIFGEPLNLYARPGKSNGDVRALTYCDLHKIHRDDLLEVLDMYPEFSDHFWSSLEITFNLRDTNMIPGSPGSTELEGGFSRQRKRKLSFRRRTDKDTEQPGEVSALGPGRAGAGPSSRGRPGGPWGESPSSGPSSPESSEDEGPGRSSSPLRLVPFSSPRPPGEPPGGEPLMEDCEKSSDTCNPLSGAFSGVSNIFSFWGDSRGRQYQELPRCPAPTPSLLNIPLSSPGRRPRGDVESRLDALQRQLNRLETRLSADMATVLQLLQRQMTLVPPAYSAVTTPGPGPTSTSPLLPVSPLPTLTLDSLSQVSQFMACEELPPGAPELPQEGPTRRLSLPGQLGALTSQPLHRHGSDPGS

Compound | hERG current change (%, negative = inhibition) at 1uM [%]
Cc1cc(-c2cccs2)c2c(N)c(C(=O)c3ccc4c(c3)OCO4)sc2n1 | 8.51
COc1cc(/C=N/NC(=O)c2ccncc2)ccc1OCc1cnc(Cl)s1 | 18.7
CCCn1c(=O)c2c(c3ccccc31)OCC(=O)N2 | 8.11
COc1ccc(Cn2c(=O)[nH]c3cc(C(=O)N4CCN(c5ccc(C(C)=O)cc5)CC4)ccc3c2=O)cc1 | 15.2
COc1ccc(CNC(=O)C2CCC(CNS(=O)(=O)c3cccc4cccnc34)CC2)cc1 (stereo not drawn) | 16.6
Cc1ccc(CN2CCN(c3cccc4[nH]ccc34)CC2)cc1 | -12.9
O=C(OCC(=O)N1CCOCC1)c1ccc2ccccc2c1 | 1.46
Cn1c(/C(C#N)=C/c2ccc(O)cc2)nc2ccccc21 | 13.3
CC1C2=C(CC(C)(C)CC2=O)NC2=C1C(=O)CC(C)(C)C2 | 11.2
CCOC(=O)N1CCN(Cc2nc(-c3cccs3)no2)CC1 | 4.84
CCOC(=O)NC1=NCC(C)S1 (stereo not drawn) | 10.2
Cc1ccc(NC(=O)CSc2nnc(-c3cc(C)on3)o2)cc1 | 17.9
COc1ccc(NS(=O)(=O)/C=C/c2ccc(OC)c(OC)c2)cc1 | 10.9
C[N+]1(C)CC2([N+](=O)[O-])CC=C(Oc3ccccc3)C([N+](=O)[O-])(C2)C1 (stereo not drawn) | 4.61
CCCCn1cnc2c(oc3nc4c(cc32)CCCC4)c1=O | -4.18
Cc1[nH]c2ccccc2c1CCN(Cc1cccs1)C(=S)NC(C)(C)C | 6.48
O=C(NCc1ccco1)C1CC(=O)N(c2cccc(Cl)c2)C1 (stereo not drawn) | -2.9
O=S(=O)(c1ccc(Cl)c(NC(=S)Nc2ccccc2N2CCOCC2)c1)N1CCOCC1 | 13.6
COc1ccc2c(c1)c(C(=O)O)c(C)n2-c1ccc(Cl)cc1 | 13

Compound | hERG current change (%, negative = inhibition) at 1uM [%]
COc1ccccc1C(=O)N1N=C(c2ccc(NS(C)(=O)=O)cc2)CC1c1cccs1 (stereo not drawn) | 11.1
CCOC(=O)CCc1c(C)c2ccc(OCC(=O)OC(C)C)cc2oc1=O | 14.2
Cc1ccc(C)c(C(=O)COC(=O)CN2C(=O)C3C4CCC(C4)C3C2=O)c1 (stereo not drawn) | 14.9
O=C(CSc1nc2c(sc3ccccc32)c(=O)n1CCCN1CCCC1)NCc1ccccc1 | -67.9
COc1ccc(C2(C)NC(=O)N(CC(=O)Nc3c(C)n(C)n(-c4ccccc4)c3=O)C2=O)cc1 (stereo not drawn) | 17.7
COC(=O)c1ccccc1OC(=O)c1cc2ccccc2oc1=O | 10.5
Cc1cccc(-c2nnc(SCC(=O)O)n2Cc2ccccc2)c1 | 12.5
CCOC(=O)N1CCN(C(=O)CSc2nnc(-c3cccc(Cl)c3)o2)CC1 | 0.557
O=C(Nc1cc(=O)[nH]c2nc(-c3ccccc3)nn12)c1ccc(Cl)cc1 | 6.48
Cc1ccccc1OCC(=O)Nc1ccc2c(c1)C(=O)N(CCC(=O)O)C2=O | 8.86
O=C(NCc1ccccc1)c1c(O)c2cccc3c2n(c1=O)CCC3 | 6.7
Cc1c(-c2ccccc2)oc2c(C(=O)OCC(=O)Nc3ccc(F)cc3)cccc2c1=O | 6.58
FC(c1nc2ccccc2[nH]1)C(F)(F)F (stereo not drawn) | 15.6
CCOc1ccccc1-c1nc2c(C(C)(C)C)nn(C)c2c(=O)[nH]1 | -14.7
Clc1cccc(CNCC2CCCO2)c1Cl (stereo not drawn) | 7.08
CCCc1cc(=O)oc2c(C)c(OCC(=O)N3CCC[C@@H]3C(=O)O)ccc12 | 16.7
Cl.OC(c1cccc(Cl)c1)(c1cccc(Cl)c1)C1CN2CCC1CC2 (stereo not drawn) | -69.6
Cc1ccccc1S(=O)(=O)Cc1ccc(C(=O)NC2CCCCCC2)o1 | -5.87
OCc1cccc[n+]1CCc1ccccc1.[Br-] | 17.1

Compound | hERG current change (%, negative = inhibition) at 1uM [%]
C=CCOC(=O)c1c(C)nc2cc3c(cc2c1C)OCO3.Cl | 5.95
Cc1ccc(C)c(N2CCN(C(=O)CN3C(=O)c4ccccc4C3=O)CC2)c1 | -1.48
O=C(c1cc(-c2ccc3c(c2)OCO3)on1)N1CCN(c2ccc(F)cc2)CC1 | 2.51
N#Cc1ccccc1OCC(=O)N(C1CCCCC1)C1CCS(=O)(=O)C1 (stereo not drawn) | 19.7
CC12CCC(=O)N1C(C(=O)Nc1ccc(F)c(F)c1F)CS2 (stereo not drawn) | 12.2
N#CC1=C(SCC(N)=O)NC(=O)CC1c1ccccc1Cl (stereo not drawn) | 8.44
CCN(CC)S(=O)(=O)c1ccc(-c2cn3ccc(C)cc3n2)cc1 | 7.09
Cc1cccc(-c2oc3ccccc3c2C#CCCCCO)c1 | 16.8
COC(=O)c1ccc(NS(=O)(=O)c2cc(-c3cc(C)no3)ccc2OC)cc1 | 10.1
COc1cc2c(C(=O)NCc3ccc4c(c3)OCO4)cn(C)c(=O)c2cc1OC | 10.8
CCOC(=O)C1(Cc2cccc(F)c2)CCN(C(=O)c2cnc(C)cn2)CC1 | -6.31
CC(Sc1n[nH]c(N)n1)C(=O)Nc1ccc(Cl)cn1 (stereo not drawn) | 22
CCCCN(CC)CCCNC(=O)c1cc2c(=O)n(C)c3ccccc3c2n1C | -14.2
CCOC(=O)N1CCN(c2c(N3CCN(c4ccccc4F)CC3)c(=O)c2=O)CC1 | -14.6
O=C(CCCN1C(=O)c2ccccc2C1=O)Nc1nnc(C2CC2)s1 | 19
CC1CN(c2ccc(Cl)cc2[N+](=O)[O-])CCN1S(C)(=O)=O (stereo not drawn) | -15.1
Cc1ccccc1N=C1NC(=O)C(CO)(CO)S1 | 10.1
O=C(Nc1cccc(C(=O)NC2CCCCC2)c1)c1ccccc1 | 13.3
Cn1ncc(Br)c1C(=O)Nc1cccc(C(F)(F)F)c1 | 9.02
